# From PubChem BioAssay AID504332 (National Center for Advancing Translational Sciences (NCATS), 2011)
# The whole screen tested about 350,000 compounds, of which about 31,000 (8.9%) were called active. The shares of active, inactive and inconclusive entries below differ from those in the screen. The call rests on the fitted dose curve; in most records, active means well fitted inhibition curve with a large enough effect; inconclusive means small, poorly fitted or top-dose-only effect; inactive means no such curve, though single readings can be large or run the other way. A potency beside an inconclusive call is a rough fit, not a confirmed value.
# Target: Histone-lysine N-methyltransferase EHMT2 (Homo sapiens) (UniProt Q96KQ7)
# Assay: qHTS Assay for Inhibitors of Histone Lysine Methyltransferase G9a; further: nearly all actives have a fitted effect of over 75% in size
# Conditions: G9a H3K9 monomethylation, AlphaScreen, 2 h; activity, negative = inhibition: at 59 µM (top of the series) unless noted
# Summary of the method: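 Readings reflect AlphaScreen signal from monomethyl-H3K9 antibody detection. HMT at 20 nM; substrate b-H3K9 500 nM; cofactor SAM 20 uM; 2 h RT reaction; compounds tested as titrations in qHTS with 15 min preincubation.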
# On the % scale 0 is the no-effect control and ±100 the full control effect; potency means the concentration at half of the fitted maximal effect; tags describe the fitted curve by direction and shape.
# UniProt Q96KQ7, sequence (Q96KQ7 whole entry, looked up): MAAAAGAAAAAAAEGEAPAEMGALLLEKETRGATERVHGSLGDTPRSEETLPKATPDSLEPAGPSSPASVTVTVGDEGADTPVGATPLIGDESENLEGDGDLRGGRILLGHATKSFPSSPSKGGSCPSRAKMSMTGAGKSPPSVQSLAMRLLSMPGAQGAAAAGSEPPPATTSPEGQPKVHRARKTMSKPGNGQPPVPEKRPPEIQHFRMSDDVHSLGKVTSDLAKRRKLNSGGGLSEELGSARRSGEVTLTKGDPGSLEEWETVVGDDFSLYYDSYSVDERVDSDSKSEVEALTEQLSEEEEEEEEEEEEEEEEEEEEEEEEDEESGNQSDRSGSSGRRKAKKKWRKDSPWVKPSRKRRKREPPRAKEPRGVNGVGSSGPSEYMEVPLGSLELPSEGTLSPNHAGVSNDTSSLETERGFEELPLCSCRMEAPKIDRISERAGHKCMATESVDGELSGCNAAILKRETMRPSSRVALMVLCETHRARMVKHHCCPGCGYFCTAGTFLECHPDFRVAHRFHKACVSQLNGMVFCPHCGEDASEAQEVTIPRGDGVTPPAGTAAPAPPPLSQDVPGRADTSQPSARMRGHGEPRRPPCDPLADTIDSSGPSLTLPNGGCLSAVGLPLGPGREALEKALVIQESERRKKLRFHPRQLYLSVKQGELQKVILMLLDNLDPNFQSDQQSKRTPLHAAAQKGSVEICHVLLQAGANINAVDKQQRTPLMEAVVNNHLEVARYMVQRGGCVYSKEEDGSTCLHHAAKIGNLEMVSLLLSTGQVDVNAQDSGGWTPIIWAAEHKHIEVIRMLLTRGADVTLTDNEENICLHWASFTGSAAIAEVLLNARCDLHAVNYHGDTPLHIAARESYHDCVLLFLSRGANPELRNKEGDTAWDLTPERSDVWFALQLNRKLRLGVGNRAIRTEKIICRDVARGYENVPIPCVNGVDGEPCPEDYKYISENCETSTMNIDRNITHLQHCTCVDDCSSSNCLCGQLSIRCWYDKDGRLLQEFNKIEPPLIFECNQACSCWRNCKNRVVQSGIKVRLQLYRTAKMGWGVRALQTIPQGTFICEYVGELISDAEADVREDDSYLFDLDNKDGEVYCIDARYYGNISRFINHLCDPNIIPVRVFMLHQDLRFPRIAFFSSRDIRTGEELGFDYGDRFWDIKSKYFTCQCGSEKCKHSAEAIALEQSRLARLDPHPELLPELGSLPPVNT
SMILES,Potency,"activity, negative = inhibition"
CCN(CC(=O)Nc1c(F)cccc1F)C(=O)c1ccc2c(c1)OCO2,"inconclusive: 7.08 µM [inhibitor, single point]",–
CCOc1ccccc1NC(=O)C1CCCN(S(=O)(=O)c2cccc3nsnc23)C1 (stereo not given),"inconclusive: 44.7 µM [inhibitor, partial curve, poor fit]",–
CCCn1c(N)c(N(CCOC)C(=O)c2cc(-c3ccco3)nc3ccccc23)c(=O)[nH]c1=O,active: 39.8 µM,–
Cc1ccc(CNC(=O)CCS(=O)(=O)c2ccc3c(c2)CC(C)N3C(=O)C2CC2)o1 (stereo not given),–,inactive: 17.4% [at 0.0925 µM]
CC(=O)Nc1ccc(NC(=O)C(C)OC(=O)CCC(=O)c2ccc(F)cc2)cc1 (stereo not given),"inconclusive: 20 µM [inhibitor, partial curve]",–
Oc1cccc(C=NCc2ccccc2)c1O,"inconclusive: 2.24 µM [inhibitor, partial curve, poor fit]",–
COc1cc(-c2n[nH]c(=S)n2Cc2ccccc2)cc(OC)c1OC,active: 3.55 µM,–
COc1ccc(Cl)cc1NC(=O)NCc1ccco1,–,inactive: -6.8% [at 102 µM]
O=C(NC(=S)NNC(=O)c1cccs1)c1ccco1,"inconclusive: 20 µM [inhibitor, single point]",–
Cc1nnc2ccc(-c3cccc(NC(=O)c4ccc(Br)o4)c3)nn12,"inconclusive: 89.1 µM [inhibitor, partial curve, poor fit]",–
Nc1cc(-c2ccccc2)ccc1O,active: 22.4 µM,–
CC(=O)c1cccc(NC(=O)N2CCC(NC(=O)C34CC5CC(CC(C5)C3)C4)CC2)c1,–,inactive: -29% [at 102 µM]
COc1ccc(-c2cnc(C)o2)cc1S(=O)(=O)Nc1ccc(C)c(N(C)C)c1,"inconclusive: 20 µM [inhibitor, partial curve, poor fit]",–
COCC(=O)N1CCC2(CCCN(C(=O)Nc3cccc(F)c3)C2)CC1,–,inactive: 9.75% [at 12.7 µM]
CN(c1ccccc1)c1ccc(/C=c2\s/c(=C(/C#N)C(=O)C(C)(C)C)n(Cc3ccco3)c2=O)cc1,"inconclusive: 56.2 µM [inhibitor, partial curve, poor fit]",–
CC(C)N1CCc2c(sc(NC(=O)CCc3ccccc3)c2C(N)=O)C1,active: 44.7 µM,–
CCOc1ccc(N2C(=O)CC(SCC(=O)O)C2=O)cc1 (stereo not given),active: 50.1 µM,–
CSc1nnc(C(C)(C)C)c(=O)n1/N=C/c1ccc(Cl)cc1,–,inactive: 2.36% [at 102 µM]
O=C(CCc1ccccc1)NC1CC(=O)N(c2ccccc2)C1 (stereo not given),–,inactive: 13.5%
Cn1ccc2cc(-c3ccc4ncnc(NCc5cccnc5)c4c3)ccc21,"inconclusive: 3.55 µM [inhibitor, partial curve, poor fit]",–
CC(C)N(C(=O)COC(=O)c1ccccc1C(=O)c1ccc(Cl)c([N+](=O)[O-])c1)C(C)C,"inconclusive: 39.8 µM [inhibitor, partial curve, poor fit]",–
CCOc1ccc(C2c3[nH]c4ccccc4c3CCN2CCCn2cccn2)cc1 (stereo not given),"inconclusive: 70.8 µM [inhibitor, single point]",–
CCCc1ccc(OCCNC(=O)C2CCCCC2)cc1,"inconclusive: 89.1 µM [inhibitor, single point]",–

SMILES,Potency,"activity, negative = inhibition"
COc1ccc(CN2C(=O)Cc3c2nc(N)c2c(N)nc(N4CCCCC4)c(C#N)c32)cc1,"inconclusive: 31.6 µM [inhibitor, partial curve, poor fit]",–
COc1ccc(N2CCN(CC(=O)Nc3cccc(S(=O)(=O)N4CCOCC4)c3)CC2)cc1,active: 14.1 µM,–
CC(=O)Nc1cccc(NC(=O)C2CC(=O)N(c3ccc(C)cc3)C2)c1 (stereo not given),"inconclusive: 50.1 µM [inhibitor, partial curve, poor fit]",–
COCCNC(=O)Cn1c(=O)n(CCCC(=O)NCc2ccc3c(c2)OCO3)c(=O)c2sccc21,–,inactive: -4.38% [at 102 µM]
C=CCc1ccccc1OCC(O)CN1CCN(CCN2C(=O)c3cccc4cccc(c34)C2=O)CC1 (stereo not given),active: 39.8 µM,–
C=CCn1c(=O)c2c(nc3n2CCS3)n(C)c1=O,–,inactive: 4.24%
COc1cccc(NC(=O)/C(C#N)=C\c2cn(Cc3ccc(Cl)cc3)c3ccccc23)c1,–,inactive: -3.92%
O=C(Nc1cc(C(F)(F)F)ccc1Cl)C(Sc1n[nH]c(=O)[nH]c1=O)c1ccccc1 (stereo not given),–,inactive: -34.5% [at 102 µM]
O=C(Nc1nc(-c2ccccn2)cs1)c1cc(S(=O)(=O)N2CCOCC2)ccc1F,"inconclusive: 35.5 µM [inhibitor, single point]",–
FC(F)Oc1ccc(-c2csc(Cc3nnc4n3CCCCC4)n2)cc1,"inconclusive: 39.8 µM [inhibitor, single point]",–
CCCc1ccc(C(=O)N2CCN(c3ccccc3OCC)CC2)cc1,"inconclusive: 79.4 µM [inhibitor, single point]",–
CCc1ccc(-c2nn(CC(=O)NC3CCCCC3)c3c2cnc2ccc(OC)cc23)cc1,–,inactive: 5.79%
Cc1ccc(C2C3=C(Nc4[nH]n(-c5ccccc5)c(=O)c42)c2ccccc2C3=O)cc1 (stereo not given),active: 3.16 µM,–
COc1ccccc1CNc1ncc(-c2ccc(F)cc2)n1C,"inconclusive: 15.8 µM [inhibitor, full curve]",–
CCCn1nnnc1SCC(=O)c1ccc(NC(C)=O)cc1,"inconclusive: 70.8 µM [inhibitor, partial curve]",–
COc1cccc(NC(=O)C2C3C=CC(O3)C2C(=O)NCc2cccnc2)c1 (stereo not given),"inconclusive: 50.1 µM [inhibitor, partial curve]",–
CSc1ccc(-c2cccc([N+](=O)[O-])c2)nn1,"inconclusive: 31.6 µM [inhibitor, full curve]",–
COc1ccc(NC(=S)N(CCc2c(C)[nH]c3ccccc23)Cc2cccnc2)cc1,active: 70.8 µM,–
CC(C)CNC(=O)C1CCCN1S(=O)(=O)c1ccc(Cl)cc1 (stereo not given),–,inactive: 11.9% [at 102 µM]
O=C(NNC(=S)NC(=O)c1sc2ccccc2c1Cl)c1ccc(Cl)cc1,"inconclusive: 25.1 µM [inhibitor, single point]",–
CC1CC(=O)C2=C(C1)Nc1ncnn1C2c1ccccc1 (stereo not given),–,inactive: -24.9% [at 0.0925 µM]
O=C(CSc1ccc2ccccc2c1)Nc1ccc(S(=O)(=O)Nc2nccs2)cc1,"inconclusive: 35.5 µM [inhibitor, single point]",–
